Test results taken from paper PMC4336329 (PLoS ONE, 2015).
Out of some 310,000 compounds screened, about 14,000 (4.5%) showed an effect of 50% or more. Effects have a minus sign here. This is one part of the list.

What follows are compounds tested against human ether-à-go-go-related gene (hERG) potassium channel (human, UniProt Q12809) (assay: primary screen, population patch clamp on CHO cells stably expressing hERG).
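Also: peak tail current of the secondary pulse compared with the same well before compound.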

Chain of human ether-à-go-go-related gene (hERG) potassium channel (Q12809 whole entry, looked up): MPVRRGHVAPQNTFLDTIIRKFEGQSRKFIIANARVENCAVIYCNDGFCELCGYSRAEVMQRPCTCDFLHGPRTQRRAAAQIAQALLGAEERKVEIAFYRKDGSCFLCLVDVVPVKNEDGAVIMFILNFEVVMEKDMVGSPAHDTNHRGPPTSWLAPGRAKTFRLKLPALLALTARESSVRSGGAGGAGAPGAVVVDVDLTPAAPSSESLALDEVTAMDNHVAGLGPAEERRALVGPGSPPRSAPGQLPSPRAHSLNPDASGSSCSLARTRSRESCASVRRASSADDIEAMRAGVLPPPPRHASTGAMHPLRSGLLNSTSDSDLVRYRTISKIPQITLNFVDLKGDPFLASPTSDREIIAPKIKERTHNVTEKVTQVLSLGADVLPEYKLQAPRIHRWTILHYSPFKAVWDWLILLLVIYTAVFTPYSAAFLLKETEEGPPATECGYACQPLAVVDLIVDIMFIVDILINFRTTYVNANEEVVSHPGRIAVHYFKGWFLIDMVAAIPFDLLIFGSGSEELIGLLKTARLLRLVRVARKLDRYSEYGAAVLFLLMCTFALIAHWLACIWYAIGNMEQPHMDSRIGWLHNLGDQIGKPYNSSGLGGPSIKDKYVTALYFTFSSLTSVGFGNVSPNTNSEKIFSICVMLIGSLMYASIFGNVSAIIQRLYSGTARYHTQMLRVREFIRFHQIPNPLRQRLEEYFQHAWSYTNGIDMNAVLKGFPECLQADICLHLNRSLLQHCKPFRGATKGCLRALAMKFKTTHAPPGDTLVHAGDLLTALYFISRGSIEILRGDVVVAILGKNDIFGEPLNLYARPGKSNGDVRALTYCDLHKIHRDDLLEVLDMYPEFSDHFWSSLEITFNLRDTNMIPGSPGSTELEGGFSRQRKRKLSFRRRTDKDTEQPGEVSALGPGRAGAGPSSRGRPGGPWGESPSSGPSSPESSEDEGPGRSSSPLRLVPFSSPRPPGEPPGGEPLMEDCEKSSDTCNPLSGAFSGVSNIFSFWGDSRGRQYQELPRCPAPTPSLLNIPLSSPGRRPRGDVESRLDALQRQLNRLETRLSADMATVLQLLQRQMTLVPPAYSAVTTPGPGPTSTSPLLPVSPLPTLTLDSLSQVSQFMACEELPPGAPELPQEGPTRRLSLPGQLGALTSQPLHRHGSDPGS

Compound | hERG current change (%, negative = inhibition) at 10uM
CCNc1nc(NC(C)C)nc(N(C#N)CC(=O)OC)n1 | 0.959%
O=C(O)c1ccc(N2C(=O)c3cccc4cccc(c34)C2=O)cc1 | 16.3%
COC(=O)c1ccc2c(c1)N(C)CCS2 | -7.05%
Cc1ccc(-c2cc(C(=O)NNC(=O)c3csc(N4CCOCC4)n3)c3ccccc3n2)cc1 | 15.7%
CC(C)c1ccc(C(=O)NC(=S)NCc2cccnc2)cc1 | -43.3%
O=C(NCCCN1CCCCC1)c1ccc2c(c1)NC(=O)C(N1CCOCC1)S2 (stereo not shown) | -3.95%
CCn1c2ccccc2c2cc(NC(=O)CNC)ccc21.O=C(O)C(=O)O | -12.8%
O=C(CCCNS(=O)(=O)c1cccc2nsnc12)NCCN1CCN(c2ccccc2F)CC1 | -41.4%
O=C(Nc1cccc(NC(=O)c2cccnc2)c1)c1cccnc1 | -3.46%
Cc1cc(C)nc(NC2=NC3CCCCC3N2)n1 (stereo not shown) | -7.62%
Cc1cnc(C(=O)OCC(=O)NC(C)CCc2ccccc2)cn1 (stereo not shown) | 6.22%
O=C(CNc1cc(S(=O)(=O)N2CCOCC2)ccc1N1CCCC1)NCc1ccco1 | -42.8%
CC(C)CC(=O)N1CCN(Cc2ccc(Br)cc2)CC1 | -2.53%
O=C(O)c1cc2nc(-c3cccs3)cc(C(F)(F)F)n2n1 | 20.1%
CCOc1ccc(N/C=C/C(=O)c2ccccc2)c([N+](=O)[O-])c1 | 10.6%
Cc1ccccc1NC(=S)N=Nc1c(O)n(C)c2ccc(S(=O)(=O)N3CCOCC3)cc12 | -7.71%
Cc1ccc(NC(=O)C(C)OC(=O)c2ccc(NS(=O)(=O)c3ccc(F)c(F)c3)cc2)cc1 (stereo not shown) | 13.4%
CCOC(=O)c1ccc(NC(=O)CSC2=NC(=O)C(CC)C(=O)N2)cc1 (stereo not shown) | 10.8%
CCOC(=O)Cc1csc(N(C)C)n1 | -4.34%
Cc1cccc(NC(=O)CN(C)S(=O)(=O)c2ccc(-c3ccc(=O)[nH]n3)s2)c1C | -19.9%
Cn1c(=O)c(=O)n(C)c2cc(S(=O)(=O)CCC(=O)NCc3ccccc3)ccc21 | 20%
O=C(COc1ccccc1)N1CCc2ccccc2C1 | 10%
OCCC#Cc1ccc(CN2CCN(C3CCCCC3)C(CCO)C2)cc1 (stereo not shown) | -0.113%
CC(C)Cn1cnc2sc3c(c2c1=N)CCCC3 | -25.2%
CCOC(=O)c1csc(NC(=O)c2ccc(S(=O)(=O)N(CC)CC)cc2)n1 | -2.57%
